Assay results reported in PubChem BioAssay (NCATS).
Records with an inconclusive call do not appear. The call rests on the fitted dose curve; in most records, active means well fitted cell-killing curve with a large enough effect; inconclusive means small, poorly fitted or top-dose-only effect; inactive means no such curve, though single readings can be large or run the other way. Where a structure was tested more than once in an assay, its records may differ in their call. For part of its entries the source gives two or more results. This is not the full list of results. The source may hold further records. Results that share an entry repeat one measurement in other runs, samples, wells, individuals or studies. Records carry a tag for their origin. A, B and so on number the origins entry by entry.

Test: qHTS of pediatric cancer cell lines to identify multiple opportunities for drug repurposing: Primary screen for Rh41 cells (AID 1347108); further: nearly all actives have a fitted effect of over 70% in size
Details: Rh41 rhabdomyosarcoma viability, CellTiter-Glo luminescence, 48 h; series mostly up to 46 µM
In short: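 Plated cells (500-1,000 per well, growth media) were allowed to settle for 5 hours, treated with compound dilutions for 48 hours, then lysed with CellTiter-Glo for 15 min at room temperature before luminescence reading.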
Potency means the concentration at half of the fitted maximal effect.

SMILES	Potency
CC12CC3CC(C)(C1)CC(N)(C3)C2	active: 11.8 µM [sample A] and inactive [sample B]
Cn1cnc2c1c(=O)[nH]c(=O)n2C	inactive [sample A] and active: 18.7 µM [sample B]
Nc1nc2c(ncn2COC(CO)CO)c(=O)[nH]1	active: 23.5 µM [sample A] and inactive [sample B]
C[C@@H]1CC(=O)NN=C1c1ccc(NN=C(C#N)C#N)cc1	inactive [sample A] and active: 20.9 µM [sample B]
CC(C)NCC(O)c1ccc(O)c(O)c1 (stereo unspecified)	active: 2.96 µM [sample A] and inactive [sample B]
NC(=O)NO	inactive [sample A] and active: 2.35 µM [sample B]
